# Measurements from the supplement of paper PMC8728848.
# The other results are listed elsewhere or left out.
# Legend:
# Assay in all cases: glycan array binding signal (z-score within array); higher = stronger binding
# Details in all cases: glycan notation: IUPAC condensed, linker removed
# [1] = target: Neu5Ac(a2-6)Gal(b1-4)Glc
# Procedure, shortened: (§1)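 From the Consortium for Functional Glycomics database, 3228 arrays were curated, keeping only those whose protein sequence was available. Binding is given as a within-array Z-score averaged across arrays sharing a protein sequence and across linkers. Negative Z-scores can be read as non-binding.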
# [2] = target: Neu5Ac(a2-6)Gal(b1-4)GlcNAc
# Procedure, shortened: as §1
# [3] = target: Neu5Ac(a2-6)Gal(b1-4)GlcNAc(b1-2)Man(a1-3)Man(b1-4)GlcNAc(b1-4)GlcNAc
# Procedure, shortened: as §1
# [4] = target: Neu5Ac(a2-6)Gal(b1-4)GlcNAc(b1-2)Man(a1-3)[Gal(b1-4)GlcNAc(b1-2)Man(a1-6)]Man(b1-4)GlcNAc(b1-4)GlcNAc
# Procedure, shortened: as §1
# [5] = target: Neu5Ac(a2-6)Gal(b1-4)GlcNAc(b1-2)Man(a1-3)[GlcNAc(b1-2)Man(a1-6)]Man(b1-4)GlcNAc(b1-4)GlcNAc
# Procedure, shortened: as §1
# [6] = target: Neu5Ac(a2-6)Gal(b1-4)GlcNAc(b1-2)Man(a1-3)[GlcNAc(b1-2)Man(b1-4)GlcNAc(b1-2)Man(a1-6)]Man(b1-4)GlcNAc(b1-4)GlcNAc
# Procedure, shortened: as §1
# [7] = target: Neu5Ac(a2-6)Gal(b1-4)GlcNAc(b1-2)Man(a1-3)[Man(a1-6)]Man(b1-4)GlcNAc(b1-4)GlcNAc
# Procedure, shortened: as §1
# [8] = target: Neu5Ac(a2-6)Gal(b1-4)GlcNAc(b1-2)Man(a1-3)[Neu5Ac(a2-6)Gal(b1-4)GlcNAc(b1-2)Man(a1-6)]Man(b1-4)GlcNAc(b1-4)GlcNAc
# Procedure, shortened: as §1
# [9] = target: Neu5Ac(a2-6)Gal(b1-4)GlcNAc(b1-2)Man(a1-6)Man(b1-4)GlcNAc(b1-4)GlcNAc
# Procedure, shortened: as §1
# [10] = target: Neu5Ac(a2-6)Gal(b1-4)GlcNAc(b1-2)Man(a1-6)[Gal(b1-4)GlcNAc(b1-2)Man(a1-3)]Man(b1-4)GlcNAc(b1-4)GlcNAc
# Procedure, shortened: as §1
# [11] = target: Neu5Ac(a2-6)Gal(b1-4)GlcNAc(b1-2)Man(a1-6)[GlcNAc(b1-2)Man(a1-3)]Man(b1-4)GlcNAc(b1-4)GlcNAc
# Procedure, shortened: as §1
# [12] = target: Neu5Ac(a2-6)Gal(b1-4)GlcNAc(b1-2)Man(a1-6)[Man(a1-3)]Man(b1-4)GlcNAc(b1-4)GlcNAc
# Procedure, shortened: as §1
# [13] = target: Neu5Ac(a2-6)Gal(b1-4)GlcNAc(b1-3)Gal(b1-3)GlcNAc
# Procedure, shortened: as §1
# [14] = target: Neu5Ac(a2-6)Gal(b1-4)GlcNAc(b1-3)Gal(b1-4)GlcNAc
# Procedure, shortened: as §1
# [15] = target: Neu5Ac(a2-6)Gal(b1-4)GlcNAc(b1-3)Gal(b1-4)GlcNAc(b1-3)Gal(b1-4)GlcNAc
# Procedure, shortened: as §1
# [16] = target: Neu5Ac(a2-6)Gal(b1-4)GlcNAc(b1-3)Gal(b1-4)[Fuc(a1-3)]GlcNAc(b1-3)Gal(b1-4)[Fuc(a1-3)]GlcNAc
# Procedure, shortened: as §1
# [17] = target: Neu5Ac(a2-6)Gal(b1-4)GlcNAc(b1-3)GalNAc
# Procedure, shortened: as §1
# [18] = target: Neu5Ac(a2-6)Gal(b1-4)GlcNAc6S
# Procedure, shortened: as §1
# [19] = target: Neu5Ac(a2-6)GalNAc
# Procedure, shortened: as §1
# [20] = target: Neu5Ac(a2-6)GalNAc(b1-4)GlcNAc
# Procedure, shortened: as §1
# [21] = target: Neu5Ac(a2-6)GlcNAc(b1-4)GlcNAc
# Procedure, shortened: as §1
# [22] = target: Neu5Ac(a2-6)GlcNAc(b1-4)GlcNAc(b1-4)GlcNAc
# Procedure, shortened: as §1
# [23] = target: Neu5Ac(a2-8)Neu5Ac
# Procedure, shortened: as §1
# [24] = target: Neu5Ac(a2-8)Neu5Ac(a2-3)Gal(b1-4)Glc
# Procedure, shortened: as §1
# [25] = target: Neu5Ac(a2-8)Neu5Ac(a2-3)[GalNAc(b1-4)]Gal(b1-4)Glc
# Procedure, shortened: as §1
# [26] = target: Neu5Ac(a2-8)Neu5Ac(a2-8)Neu5Ac
# Procedure, shortened: as §1
# [27] = target: Neu5Ac(a2-8)Neu5Ac(a2-8)Neu5Ac(a2-3)Gal(b1-4)Glc
# Procedure, shortened: as §1
# [28] = target: Neu5Ac(a2-8)Neu5Ac(a2-8)Neu5Ac(a2-3)[GalNAc(b1-4)]Gal(b1-4)Glc
# Procedure, shortened: as §1
# [29] = target: Neu5Ac(a2-8)Neu5Ac(a2-8)Neu5Ac(a2-8)Neu5Ac(a2-3)[GalNAc(b1-4)]Gal(b1-4)Glc
# Procedure, shortened: as §1
# [30] = target: Neu5Ac(b2-6)Gal(b1-4)GlcNAc
# Procedure, shortened: as §1
# [31] = target: Neu5Ac(b2-6)GalNAc
# Procedure, shortened: as §1
# [32] = target: Neu5Ac9Ac(a2-3)Gal(b1-3)GlcNAc
# Procedure, shortened: as §1
# [33] = target: Neu5Ac9Ac(a2-3)Gal(b1-4)GlcNAc
# Procedure, shortened: as §1
# [34] = target: Neu5Ac9Ac(a2-6)Gal(b1-4)GlcNAc
# Procedure, shortened: as §1
# [35] = target: Neu5Gc(a2-3)Gal(b1-3)GlcNAc
# Procedure, shortened: as §1
# [36] = target: Neu5Gc(a2-3)Gal(b1-3)[Fuc(a1-4)]GlcNAc
# Procedure, shortened: as §1
# [37] = target: Neu5Gc(a2-3)Gal(b1-4)Glc
# Procedure, shortened: as §1
# [38] = target: Neu5Gc(a2-3)Gal(b1-4)GlcNAc
# Procedure, shortened: as §1
# [39] = target: Neu5Gc(a2-3)Gal(b1-4)[Fuc(a1-3)]GlcNAc
# Procedure, shortened: as §1
# [40] = target: Neu5Gc(a2-6)Gal(b1-4)GlcNAc
# Procedure, shortened: as §1
# [41] = target: Neu5Gc(a2-6)GalNAc
# Procedure, shortened: as §1
# [42] = target: Neu5Gc(b2-6)Gal(b1-4)GlcNAc
# Procedure, shortened: as §1
binder,measurement,setting,value
"Eap (Staphylococcus aureus), A0A7L5PYT7 (protein) MKFKSLITTTLALGVLASTGANFNNNEAAAAAKPLDKSSSSLHHGYSKVHVPYAITVNGTSQNILSSLTFNKNQNISYKDLEDRVKSVLKSDRGISDIDLRLSKQAKYTVYFKNGTKKVIDLKAGIYTADLINTSEIKAININVDTKKQVEDKKKDKANYQVPYTITVNGTSQNILSNLTFNKNQNISYKDLEDKVKSVLESNRGITDVDLRLSKQAKYTVNFKNGTKKVIDLKSGIYTANLINSSDIKSININVDTKKHIENKAKRNYQVPYSINLNGTSTNILSNLSFSNKPWTNYKNLTSQIKSVLKHDRGISEQDLKYAKKAYYTVYFKNGGKRILQLNSKNYTANLVHAKDVKRIEITVKTGTKAKADRYVPYTIAVNGTSTPILSDLKFTGDPRVGYKDISKKVKSVLKHDRGIGERELKYAKKATYTVHFKNGTKKVININSNISQLNLLYVQDIKKIDIDVKTGTKAKADSYVPYTIAVNGTSTPILSKLKISNKQLISYKYLNDKVKSVLKSERGISDLDLKFAKQAKYTVYFKNGKKQVVNLKSDIFTPNLFSAKDIKKIDIDVKQYTKSKKNK",glycan array binding signal (z-score),[1],0.222
same,glycan array binding signal (z-score),[2],-0.351
same,glycan array binding signal (z-score),[3],-0.609
same,glycan array binding signal (z-score),[4],-0.48
same,glycan array binding signal (z-score),[5],-0.646
same,glycan array binding signal (z-score),[6],-0.57
same,glycan array binding signal (z-score),[7],-0.525
same,glycan array binding signal (z-score),[8],-0.095
same,glycan array binding signal (z-score),[9],-0.648
same,glycan array binding signal (z-score),[10],-0.362
same,glycan array binding signal (z-score),[11],-0.63
same,glycan array binding signal (z-score),[12],-0.496
same,glycan array binding signal (z-score),[13],-0.168
same,glycan array binding signal (z-score),[14],-0.493
same,glycan array binding signal (z-score),[15],-0.513
same,glycan array binding signal (z-score),[16],-0.323
same,glycan array binding signal (z-score),[17],0.453
same,glycan array binding signal (z-score),[18],-0.392
same,glycan array binding signal (z-score),[19],-0.656
same,glycan array binding signal (z-score),[20],-0.538
same,glycan array binding signal (z-score),[21],-0.604
same,glycan array binding signal (z-score),[22],-0.56
same,glycan array binding signal (z-score),[23],-0.399
same,glycan array binding signal (z-score),[24],-0.508
same,glycan array binding signal (z-score),[25],-0.511
same,glycan array binding signal (z-score),[26],-0.447
same,glycan array binding signal (z-score),[27],-0.632
same,glycan array binding signal (z-score),[28],-0.376
same,glycan array binding signal (z-score),[29],-0.431
same,glycan array binding signal (z-score),[30],-0.365
same,glycan array binding signal (z-score),[31],-0.421
same,glycan array binding signal (z-score),[32],0.41
same,glycan array binding signal (z-score),[33],-0.167
same,glycan array binding signal (z-score),[34],-0.241
same,glycan array binding signal (z-score),[35],-0.196
same,glycan array binding signal (z-score),[36],-0.513
same,glycan array binding signal (z-score),[37],-0.159
same,glycan array binding signal (z-score),[38],-0.529
same,glycan array binding signal (z-score),[39],-0.525
same,glycan array binding signal (z-score),[40],-0.235
same,glycan array binding signal (z-score),[41],1.1
same,glycan array binding signal (z-score),[42],0.298
